Experimental findings from publication PMC6151265 are described below.

Assay [1] concerns the target T1, rabaptin-5 (endogenous, melanocytes) (mouse (endogenous in melan-Ink melanocytes)) (UniProt O35551).
T1 sequence: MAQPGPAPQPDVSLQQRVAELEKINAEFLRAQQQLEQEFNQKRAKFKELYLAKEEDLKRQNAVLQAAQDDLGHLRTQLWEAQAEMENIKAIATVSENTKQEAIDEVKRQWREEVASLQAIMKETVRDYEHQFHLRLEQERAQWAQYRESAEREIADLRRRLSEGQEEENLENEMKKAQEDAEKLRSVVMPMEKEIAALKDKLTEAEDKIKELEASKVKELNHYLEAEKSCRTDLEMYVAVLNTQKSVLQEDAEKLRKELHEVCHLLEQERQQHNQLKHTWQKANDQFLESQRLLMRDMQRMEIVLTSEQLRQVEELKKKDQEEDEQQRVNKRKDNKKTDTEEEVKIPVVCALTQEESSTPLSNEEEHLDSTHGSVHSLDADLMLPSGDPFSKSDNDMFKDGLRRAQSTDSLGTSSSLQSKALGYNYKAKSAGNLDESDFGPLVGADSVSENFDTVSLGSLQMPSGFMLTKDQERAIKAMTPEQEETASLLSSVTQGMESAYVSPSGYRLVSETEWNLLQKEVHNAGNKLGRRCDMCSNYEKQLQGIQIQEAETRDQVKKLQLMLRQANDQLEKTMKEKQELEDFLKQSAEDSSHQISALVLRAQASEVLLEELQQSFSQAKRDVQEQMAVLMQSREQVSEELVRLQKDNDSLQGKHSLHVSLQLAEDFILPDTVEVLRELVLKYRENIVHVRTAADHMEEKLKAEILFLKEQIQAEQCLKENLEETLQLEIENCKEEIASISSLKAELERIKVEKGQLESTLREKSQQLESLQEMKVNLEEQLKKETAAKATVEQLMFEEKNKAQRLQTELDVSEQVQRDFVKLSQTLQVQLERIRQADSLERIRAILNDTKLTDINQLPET
Kind of assay: co-IP; endogenous rabaptin-5 from melan-Ink melanocyte lysate, anti-rabaptin-5 antibody and Protein G–Sepharose 4B beads overnight at 4°C; immunoblotting. Background: Immunoblotting shows a protein as a band on a membrane.

Assay [2] has as its target T2, Rab4 (endogenous, melanocytes) (mouse (endogenous in melan-Ink melanocytes)) (UniProt P56371).
T2 sequence: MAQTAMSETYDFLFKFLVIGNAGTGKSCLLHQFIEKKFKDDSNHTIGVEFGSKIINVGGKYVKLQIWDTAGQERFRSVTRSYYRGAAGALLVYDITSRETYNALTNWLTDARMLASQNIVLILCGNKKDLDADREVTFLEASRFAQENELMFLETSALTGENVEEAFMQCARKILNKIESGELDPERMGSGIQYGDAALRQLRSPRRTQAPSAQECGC
Kind of assay: co-IP; endogenous Rab4 from melan-Ink melanocyte lysate, anti-Rab4 antibody and Protein G–Sepharose 4B beads overnight at 4°C; immunoblotting.

For another assay, the target named is T3, hPMEL^623-668 (human) (UniProt P40967).
T3 sequence: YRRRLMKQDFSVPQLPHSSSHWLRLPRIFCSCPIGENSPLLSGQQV
Description: two-hybrid; Y2HGold yeast; cargo tails in pGBKT7 against AP-3 or AP-1 subunits; growth on −His (+2 or 10 mM 3AT) plates, 3–5 days at 30°C.

No constants are given. Whether binding was seen depends on the method and setting. For part of these data: In cells and extracts the contact can be indirect. Some results given as binding are weak or reduced against the parent protein; the word gives no strength.

B1: Rab4 (endogenous, melanocytes) (protein, UniProt P56371 1-218)
chain: MAQTAMSETYDFLFKFLVIGNAGTGKSCLLHQFIEKKFKDDSNHTIGVEFGSKIINVGGKYVKLQIWDTAGQERFRSVTRSYYRGAAGALLVYDITSRETYNALTNWLTDARMLASQNIVLILCGNKKDLDADREVTFLEASRFAQENELMFLETSALTGENVEEAFMQCARKILNKIESGELDPERMGSGIQYGDAALRQLRSPRRTQAPSAQECGC
B1: the binding entry in assay [1] was “binds”.

B2: KIF3B (endogenous, melanocytes) (protein, UniProt Q61771 1-747)
chain: MSKLKSSESVRVVVRCRPMNGKEKAASYDKVVDVDVKLGQVSVKNPKGTSHEMPKTFTFDAVYDWNAKQFELYDETFRPLVDSVLQGFNGTIFAYGQTGTGKTYTMEGVRGDPEKRGVIPNSFDHIFTHISRSQNQQYLVRASYLEIYQEEIRDLLSKDQTKRLELKERPDTGVYVKDLSSFVTKSVKEIEHVMNVGNQNRSVGATNMNEHSSRSHAIFVITIECSEVGLDGENHIRVGKLNLVDLAGSERQAKTGAQGERLKEATKINLSLSALGNVISALVDGKSTHIPYRDSKLTRLLQDSLGGNAKTVMVANVGPASYNVEETLTTLRYANRAKNIKNKPRVNEDPKDALLREFQEEIARLKAQLEKRSIGRRKRREKRREGGGSGGGGEEEEEEGEEGEEDGDDKDDYWREQQEKLEIEKRAIVEDHSLVAEEKMRLLKEKEKKMEDLRREKDAAEMLGAKIKAMESKLLVGGKNIVDHTNEQQKILEQKRQEIAEQKRREREIQQQMESRDEETLELKETYTSLQQEVDIKTKKLKKLFSKLQAVKAEIHDLQEEHIKERQELEQTQNELTRELKLKHLIIENFIPLEEKNKIMNRSFFDDEEDHWKLHPITRLENQQMMKRPVSAVGYKRPLSQHARMSMMIRPEPRYRAENIMLLELDMPSRTTRDYEGPAISPKVQAALDAALQDEDEIQVDASSFESTASRKPKARPKSGRKSGSSSSSSGNPASQFYPQSRGLVPK
Consider B2, for which the binding result in assay [2] was “binds”.

B3: rabenosyn-5 (endogenous, melanocytes) (protein, UniProt Q80Y56 1-783)
chain: MASLDDPGEVREGFLCPLCLKDLQSFYQLQSHYEEEHLEDRDVKGQIKNLVQKARKAKNKLLKREGDDRVEPGTQGYESFSYGGVDPYMWEPQELGAMRSHLSDFKKHRAARIDHYVVEVNKLIIRLEKLTAFDRTNTETSKIRAIEKSVVPWVNDQDVPFCPDCGNKFSIRNRRHHCRLCGSIMCKKCMELIGLPLAHKLTSASKDSLSTHTSPSQSPNSVHGSRRGSISSMSSVSSVLDEKDDDRIRCCTHCKDKLLKREQQMDEKEHTPDIVKLYEKLRLCMEKVDQKAPEYIRMAASLNAGETTYNLEHANDLRVEVQKVYELIDALSKKILTLGLNQDPSPHPNTLRLQRMIRYSATLFVQEKLLGLMSLPTKEQFEELKKKRKQDLEQKRTVERQAALESRRKLEERQSGLASHTANGDVRSLRGIPPPLRKAEGWLPLSEGQGQSEDPDPLLQQIYNITSFIRQAKAAGRTDEVRTLQENLRQLQDEYDQQQTEKAIELSRKQAEEEELQREQLQMLRKRELEREQEQFLAASLQTRTRVLELREVIPFQLEASRGPHIDLSYSLDQDSSPVQSSTAPDILTPGSALAPMHLWSGPPALGQETLPQSTMSQQSDKASLNPFDEDDLSSPTEGAISPAAVEAFLGPPAAVTKEYNPFEEDAEEEEVAELGAGNPFTDPDSPAPNPFDEDDGPRPASPAAPGNPFEECPSTNPFEVDSDSGMEAEEHIEEELLLQQIDNIKAYIFDAKQCGRMDEVEVLTENLRELKCTLAKQKGAPN
Turning to B3, the binding entry in assay [1] is reported as “no binding”.

B4: AP-3 β3A subunit (yeast two-hybrid) (protein, UniProt O00203 1-1094)
chain: MSSNSFPYNEQSGGGEATELGQEATSTISPSGAFGLFSSDLKKNEDLKQMLESNKDSAKLDAMKRIVGMIAKGKNASELFPAVVKNVASKNIEIKKLVYVYLVRYAEEQQDLALLSISTFQRALKDPNQLIRASALRVLSSIRVPIIVPIMMLAIKEASADLSPYVRKNAAHAIQKLYSLDPEQKEMLIEVIEKLLKDKSTLVAGSVVMAFEEVCPDRIDLIHKNYRKLCNLLVDVEEWGQVVIIHMLTRYARTQFVSPWKEGDELEDNGKNFYESDDDQKEKTDKKKKPYTMDPDHRLLIRNTKPLLQSRNAAVVMAVAQLYWHISPKSEAGIISKSLVRLLRSNREVQYIVLQNIATMSIQRKGMFEPYLKSFYVRSTDPTMIKTLKLEILTNLANEANISTLLREFQTYVKSQDKQFAAATIQTIGRCATNILEVTDTCLNGLVCLLSNRDEIVVAESVVVIKKLLQMQPAQHGEIIKHMAKLLDSITVPVARASILWLIGENCERVPKIAPDVLRKMAKSFTSEDDLVKLQILNLGAKLYLTNSKQTKLLTQYILNLGKYDQNYDIRDRTRFIRQLIVPNVKSGALSKYAKKIFLAQKPAPLLESPFKDRDHFQLGTLSHTLNIKATGYLELSNWPEVAPDPSVRNVEVIELAKEWTPAGKAKQENSAKKFYSESEEEEDSSDSSSDSESESGSESGEQGESGEEGDSNEDSSEDSSSEQDSESGRESGLENKRTAKRNSKAKGKSDSEDGEKENEKSKTSDSSNDESSSIEDSSSDSESESEPESESESRRVTKEKEKKTKQDRTPLTKDVSLLDLDDFNPVSTPVALPTPALSPSLMADLEGLHLSTSSSVISVSTPAFVPTKTHVLLHRMSGKGLAAHYFFPRQPCIFGDKMVSIQITLNNTTDRKIENIHIGEKKLPIGMKMHVFNPIDSLEPEGSITVSMGIDFCDSTQTASFQLCTKDDCFNVNIQPPVGELLLPVAMSEKDFKKEQGVLTGMNETSAVIIAAPQNFTPSVIFQKVVNVANVGAVPSGQDNIHRFAAKTVHSGSLMLVTVELKEGSTAQLIINTEKTVIGSVLLRELKPVLSQG
Take B4: the binding result with hPMEL^623-668 (human) is “no binding”.

B5: AP-3 δ subunit (yeast two-hybrid) (protein, UniProt O14617 1-1153)
chain: MALKMVKGSIDRMFDKNLQDLVRGIRNHKEDEAKYISQCIDEIKQELKQDNIAVKANAVCKLTYLQMLGYDISWAAFNIIEVMSASKFTFKRIGYLAASQSFHEGTDVIMLTTNQIRKDLSSPSQYDTGVALTGLSCFVTPDLARDLANDIMTLMSHTKPYIRKKAVLIMYKVFLKYPESLRPAFPRLKEKLEDPDPGVQSAAVNVICELARRNPKNYLSLAPLFFKLMTSSTNNWVLIKIIKLFGALTPLEPRLGKKLIEPLTNLIHSTSAMSLLYECVNTVIAVLISLSSGMPNHSASIQLCVQKLRILIEDSDQNLKYLGLLAMSKILKTHPKSVQSHKDLILQCLDDKDESIRLRALDLLYGMVSKKNLMEIVKKLMTHVDKAEGTTYRDELLTKIIDICSQSNYQYITNFEWYISILVELTRLEGTRHGHLIAAQMLDVAIRVKAIRKFAVSQMSALLDSAHLLASSTQRNGICEVLYAAAWICGEFSEHLQEPHHTLEAMLRPRVTTLPGHIQAVYVQNVVKLYASILQQKEQAGEAEGAQAVTQLMVDRLPQFVQSADLEVQERASCILQLVKHIQKLQAKDVPVAEEVSALFAGELNPVAPKAQKKVPVPEGLDLDAWINEPLSDSESEDERPRAVFHEEEQRRPKHRPSEADEEELARRREARKQEQANNPFYIKSSPSPQKRYQDTPGVEHIPVVQIDLSVPLKVPGLPMSDQYVKLEEERRHRQKLEKDKRRKKRKEKEKKGKRRHSSLPTESDEDIAPAQQVDIVTEEMPENALPSDEDDKDPNDPYRALDIDLDKPLADSEKLPIQKHRNTETSKSPEKDVPMVEKKSKKPKKKEKKHKEKERDKEKKKEKEKKKSPKPKKKKHRKEKEERTKGKKKSKKQPPGSEEAAGEPVQNGAPEEEQLPPESSYSLLAENSYVKMTCDIRGSLQEDSQVTVAIVLENRSSSILKGMELSVLDSLNARMARPQGSSVHDGVPVPFQLPPGVSNEAQYVFTIQSIVMAQKLKGTLSFIAKNDEGATHEKLDFRLHFSCSSYLITTPCYSDAFAKLLESGDLSMSSIKVDGIRMSFQNLLAKICFHHHFSVVERVDSCASMYSRSIQGHHVCLLVKKGENSVSVDGKCSDSTLLSNLLEEMKATLAKC
Consider B5, for which, in the assay with hPMEL^623-668 (human), the binding result is “no binding”.

B6: Rabip4 (endogenous, melanocytes) (protein, UniProt Q8BIJ7 1-712)
chain: MAARGECRRAGQDSEPEPEREPESEPGPEPEPQAGLESGEAFEIVDRSQLPSPGELRSASRPRVADSWSAPILTLARRATGNLSASCGSALRAAAGLGDGGGGGERAASKGQMMEERANLMHMMKLSIKVLLQSALSLGRSLDADYAPLQQFFVVMEHCLKHGLKVKKSFIGQNKSFFGPLELVEKLCPEASDIATSVRNLPELKTAVGRGRAWLYLALMQKKLADYLKVLIDNKQLLSEFYEPEALMMEEEGMVIVGLLVGLNVLDANLCLKGEDLDSQVGVIDFSLCLKDAQDLDSGREHERITDVLDQKNYVEELNRHLSCTVGDLQTKIDGLEKTNSKLQEELSAATDRICSLQKEQQQLREQNEVIRERSEKSVEITKQDTKVELETYKQTRQGLDEMYSDVWKQLKEEKKVRLELEKELELQIGMKTEMEIAMKLLEKDTHEKQDTLVALRQQLEEVKAINLQMFHKVQSAESSLQQKNEAIASFEGKTTQVMSSMKQMEERLQQAERARQAAEERSHKLQQELSGRGSALQLQLSQLRDQCSGLEKELKSEKEQRQALQRELQREKDTSCLLQTELQQVEGLKKELRELQDEKAELRKVCEEQEQALQEMGLHLSQSKLKMEDIKEVNKALKGHTWLKDDEATHCKQCEKDFSISRRKHHCRNCGHIFCNTCSSNELALPSYPKPVRVCDSCHTLLLQRCSSTAS
As for B6, the binding result in assay [1] is listed as “no binding”.
